From the supplement of paper PMC11417369
± gives the standard deviation of the averaged measurements. The list shows a part of the results.

system: PfAP2-EXP AP2 domain (GST-tagged); experiment: gcPBM binding intensity (ln(normalized median fluorescence intensity)); higher = stronger DNA binding
How it was run: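 The binding buffer was 1× PBS containing 1% milk, 0.2 mg/ml BSA, 0.5% salmon testes DNA and 0.03% Triton X-100. In it, GST-tagged P. falciparum DNA-binding domains expressed in E. coli were applied for 1 h to an Agilent 4 × 180k array of primer-extended double-stranded 36-bp intergenic genomic probes plus negative controls. Binding intensity, read with Alexa488 anti-GST antibody and a 488 nm scan, is the highest Masliner-normalised natural-log median intensity across replicate spots of either probe orientation.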

Sequence	gcPBM binding intensity (ln)
ACTCGCATATTTAAATGTACTTAATTAGAAGAAAAA [XGTACX_site3304]	8.66 ± 0.22
AGAATTTTAGATTTAGCACACATTTTTTTTTTTTTT [CACACA_site4081]	8.3 ± 0.33
TTTTTTTGCCATATTACACACACACCGGTAAACCCC [CACACA_site8475]	9.46 ± 0.53
TATAAATAAATAAACACACACAAATAAAATAAAAAA [CACACA_site7623]	8.77 ± 0.4
ACATATTAGGGTCATGAACACACAAAAAAAAAAAAA [CACACA_site8218]	8.46 ± 0.53
TTTATTTATTTATTCTTATTTTTTTTTTTTTTTACT [CACACA_negctrl_site257]	8.35 ± 0.52
AATTCAGCTTTACAACGTACACAATCATATGTCTAT [XGTACX_site8113]	8.77 ± 0.4
ATGAAGATTTAAAAATGTACATATGATCTATGTCCT [XGTACX_site8409]	8.38 ± 0.36
TAATACATAAATGATTGTACATAAGAATTGAAACAT [XGTACX_site4583]	8.72 ± 0.34
TCTAGGAAAAATTATAGTACACAAAAATATATATAT [XGTACX_site4136]	9.37 ± 0.2
TTATATGCACTTTTTGCACACGTATGAATAACAAAA [CACACA_site1811]	8.93 ± 0.11
ATATATACATATACTATATCTTTTATTTTTATTATT [GTGCAC_negctrl_site127]	8.29 ± 0.15
TATGACACTTTGAAGGGTACATGCAGAAAAAAAAAA [XGTACX_site569]	9.17 ± 0.18
TATATATATTAAAAACGTACAAAATAAGAATTAATT [XGTACX_site5979]	8.94 ± 0.47
GGATATATTTTATGTACACACACATATAAGGGATTA [CACACA_site4181]	8.54 ± 0.33
CATAAAAATGGATACACACACATAATATATATATAT [CACACA_site3619]	9.81 ± 0.3
TAATTTTTTTTTTATTGTACTTAATATTTTTAATTT [XGTACX_site5929]	8.4 ± 0.34
AAAAAAATTAATGTGTGTACTTAGATATAATGTTTA [XGTACX_site8862]	8.3 ± 0.39
TTACAAATATTATAAAGTACAAACCAGTAGATTTTG [XGTACX_site2272]	8.27 ± 0.42

Sequence	gcPBM binding intensity (ln)
TTTTTTTTTTTTAAAAGTACATAGTAGTAATTATAG [XGTACX_site4232]	8.09 ± 0.29
TCATTCTAAATATAAACACACATAAATATGTACATT [CACACA_site7555]	8.56 ± 0.42
TATTTTTTTTTTTTTTTTTTTACCTTTCCACTCAAA [CACACA_negctrl_site1454]	8.2 ± 0.5
ATTATATATACATATACACACATACGTACATACATA [CACACA_site9194]	8.8 ± 0.4
GTGAAGGTTTATATGTGTACATATATGTATTATATA [XGTACX_site326]	8.63 ± 0.3
ATTTCATACAGACACACACACAAACAAACATATATA [CACACA_site979]	8.93 ± 0.63
TTTAATAAATTGTGTACACAAAACATATAAATTTCG [CACACA_site5644]	8.69 ± 0.19
GACATTTCTTGGGATACATGCATGTCCCAGAACAAA [TGCATGCA_site271]	9.14 ± 0.39
TTTTTTTTTTTTAATGCACACAGTGAACTTTTACTT [CACACA_site3567]	8.56 ± 0.18
ATTATCAAGACATTGCGTACTTAAAAAAAAAAAAAT [XGTACX_site6347]	8.51 ± 0.4
CATATATAATAATATTGTACATATATAATAATAATA [XGTACX_site3338]	8.4 ± 0.35
TTATTATTCATATATTCACACATTAAAATTTTTCAA [CACACA_site4243]	8.38 ± 0.4
TGTATACATAATATTTGTACATATTGTTATATATAT [XGTACX_site740]	8.57 ± 0.23
AATATATATAATAATTGTACAATACGTATGTTATAT [XGTACX_site8745]	8.87 ± 0.45
TCCTATATCACAAATGTGCACAGAAAAAAAAAATAT	9.1 ± 0.29
ATATATATATACATACGTACACACAAATATTAAAAT [XGTACX_site4007]	9.935 ± 0.078
TTATAAAAAAAAAAAAAAAAGAAAATGAATTCACGA [CACACA_negctrl_site1248]	8.29 ± 0.43
TGTTATATATTATATACATGCACAAAAGCAACACAA [TGCATGCA_site1009]	9.04 ± 0.22
ATTTTATTTTTTGAGTGTACTAGTTCAACAACTCCG [XGTACX_site8600]	8.72 ± 0.52

Sequence	gcPBM binding intensity (ln)
TTCGACGAGAGCAAGTGTACTCTTGAATAATTTATA [XGTACX_site7613]	8.31 ± 0.39
ATAATATATATATGTAGTACGTATATAATTTTAATA [XGTACX_site5228]	8.45 ± 0.39
ATATTTATGACCGTACGTACCTAACAATACAATCAA [XGTACX_site4511]	8.67 ± 0.099
TGAATTTCAAAACAGTGTACATTAATATATATATAA [XGTACX_site7951]	8.57 ± 0.39
AATTAAAATTTTTTTTTTTTTTTTTTTTTTCTATTA [CACACA_negctrl_site1585]	7.87 ± 0.58
AAAAATAAAAAAAACACACATACCTTATTTTTGTTC [CACACA_site2634]	8.98 ± 0.73
AAATTGATATTATATATATATATATATATATATATA [GTGCAC_negctrl_site482]	10 ± 0.42
TATATATCCTTCTATGCATGCATATGGATAGATTTC [TGCATGCA_site58]	9.65 ± 0.12
TATATATAGAAACACACACACAAAAAAAAAAAAAAA [CACACA_site1506]	8.24 ± 0.42
ATTTAAAAAACTTTTAGCAAAAAAAAAAAATAATAA [TGCATGCA_negctrl_site191]	8.45 ± 0.45
TTGTTTTGCTAAAAATGTACTCTATATAAAAGCTTT [XGTACX_site4027]	8.37 ± 0.28
TATATATATTATATATGTACACATATGTGAGAATGA [XGTACX_site2992]	9 ± 0.38
ATTTATATGTAGATGTGTACTTAATTGTAATGTGTT [XGTACX_site6422]	8.47 ± 0.37
TATCAAAATAAATGCACACAAATTGCACATATCTAT [CACACA_site1097]	8.43 ± 0.11
CAAAAACATACCTACACACACAATATGTATAAATAA [CACACA_site7617]	8.47 ± 0.59
AACTTTTTTATATGCACACATAAACAAGGATATATA [CACACA_site2874]	8.67 ± 0.2
AAAAAAAAAAAAAACACACACACACCCATACACATA [CACACA_site2860]	8.57 ± 0.33
TATATATACATAAAAACATGCAATATATACACATTA [TGCATGCA_site444]	8.46 ± 0.3
